In all, about 360,000 compounds went through this assay and about 7,500 (2.1%) were called active. This list was built around the results that the source calls inconclusive (neither active nor inactive); the mix of calls is not that of the screen. Calls follow the shape of the dose curve; as a rule, active = well fitted cell-killing curve with a large enough effect; inconclusive = small, poorly fitted or top-dose-only effect, or effect the other way, or another doubt; inactive = no such curve, though single readings can be large or run the other way. Potencies of inconclusive entries are left out as doubtful fits.
Test: qHTS for induction of synthetic lethality in tumor cells producing 2HG: qHTS for the HT-1080-IDH1KD cell line;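 as to activity, negative = toxicity: 0% = DMSO wells and -100% = cell-free medium wells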
Details: HT-1080 IDH1 knockdown viability, ATP luminescence, 48 h; activity, negative = toxicity: at 46.1 µM (top of the series) unless noted
Summary of the method: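 CellTiter-Glo luminescence after 48 h compound exposure at 37 degrees C of IDH1-knockdown HT-1080 cells in 5% FBS RPMI. %Activity scaled between DMSO wells and cell-free media wells, with curves fitted and assigned curve classes.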
Potency is read from the fitted curve at half-maximal effect; tags tell the direction and shape of the fitted curve.

Row | Structure (SMILES) | Potency | activity, negative = toxicity
1 | CCOC(=O)C1=CCN(S(=O)(=O)c2cccc(Cl)c2)C1c1ccc(F)cc1 (centres undefined) | inconclusive [cytotoxic, single point] | 
2 | O=C(Nc1ccn(Cc2ccccc2F)n1)c1ccc(COc2ccc(Cl)cc2Cl)o1 | inconclusive [cytotoxic, single point] | 
3 | O=c1c2cnn(-c3ccccc3)c2nc(-c2cccs2)n1-c1ccc(Br)cc1 |  | inactive: 6.19%
4 | CCCCNc1c(-c2cccnc2)nc2nc(C)cc(C)n12 |  | inactive: 10.9%
5 | O=C(O)CC(c1ccccc1)N1C(=O)c2cccc([N+](=O)[O-])c2C1=O (centres undefined) |  | inactive: 8.89%
6 | COc1cc(OC)c(NS(=O)(=O)c2cccc(C(=O)OCC(=O)NCC3CCCO3)c2)cc1Cl (centres undefined) |  | inactive: 11.3%
7 | CCOc1cccc(-c2cc(C(=O)N/N=C/c3ccc(OC)c(CN4CCOCC4)c3)c3ccccc3n2)c1 | inconclusive [cytotoxic, partial curve] | 
8 | O=C(O)/C=C/c1ccc(-n2ccnc2)cc1 |  | inactive: 10.3%
9 | Cc1cc(N2CCCCC2)nc2ccc(NC(=O)c3ccc(Br)o3)cc12 | inconclusive [cytotoxic, single point] | 
10 | CC(C)n1nnnc1C1c2ccccc2C(=O)N1Cc1ccccc1 (centres undefined) |  | inactive: 17.8%
11 | COC(=O)c1ccccc1COc1cccn2c(N(C)CC3CC3)c(C)nc12 | inconclusive [cytotoxic, single point] | 
12 | CCSc1nnc(NC(=O)c2csc(C)c2)s1 |  | inconclusive: 19.8%
13 | O=C1NC(Cc2ccc(O)cc2)c2nc3ccc(F)cc3c(=O)n2-c2cc3ccccc3cc21 (centres undefined) | active: 16.4 µM | 
14 | O=C(NC(=S)Nc1cc(-c2nc3ccccc3[nH]2)ccc1Cl)c1ccc2c(c1)OCO2 | inconclusive [cytotoxic, partial curve] | 
15 | Cc1ccn2c(Nc3ccccc3C)c(-c3ccccn3)nc2c1 | active: 9.2 µM | 
16 | O=C(NCCN1CCOCC1)c1ccc2c(c1)N(Cc1cccc(Cl)c1)C(=O)c1ccccc1S2(=O)=O |  | inactive: -10.9%
17 | O=C1NC[C@@H](c2ccccc2)OC(=O)[C@H](Cc2ccc(F)cc2)C/C=C\C[C@@H]1CC(=O)N(CCO)Cc1ccccc1 | inconclusive [cytotoxic, single point] | 
18 | O=C(Nc1nccs1)C(Br)C(Br)c1ccccc1 (centres undefined) | inconclusive [cytotoxic, single point] | 
19 | NC(Cc1ccc(C(F)(F)F)cc1)c1csc(Nc2ccc(S(N)(=O)=O)cc2)n1 (centres undefined) | inconclusive [cytotoxic, single point] | 
20 | O=c1[nH][nH]c2c1[C@H](c1ccc(Cl)cc1)O[C@H](CCc1ccccc1)C2 | inconclusive [cytotoxic, single point] | 
21 | COc1ccc(NC(=S)NN(C)C(=S)Nc2ccc(OC)cc2)cc1 | active: 1.3 µM | 
22 | COc1ccc(-n2c(C)cc(C(=O)CCl)c2C)cc1 | active: 14.6 µM | 
23 | CCCn1c2ccc(C)cc2c2n[nH]c(=S)nc21 |  | inactive: -10.9%
24 | Cc1[nH]c(C(=O)N/N=C/c2ccc(C(=O)O)cc2)c(C)c1C(=O)N/N=C/c1ccc(C(=O)O)cc1 |  | inactive: 1.16%
25 | O=C(CSc1nc2ccccc2[nH]1)NCc1ccco1 |  | inactive: 16.3% [at 9.24 µM]

Row | Structure (SMILES) | Potency | activity, negative = toxicity
26 | COc1ccc2c(C(=O)CN3CC(C)OC(C)C3)c[nH]c2c1 (centres undefined) |  | inactive: 1.09%
27 | O=S(=O)(NC1CCCC1)c1ccc(S(=O)(=O)N2CCCN(Cc3ccccc3)C2)cc1 | inconclusive [cytotoxic, single point] | 
28 | C=CCn1c(C)c(/C=C/c2cc[n+](C)cc2)c2ccccc21 | inconclusive [cytotoxic, partial curve, poor fit] | 
29 | Cc1ccc2oc(/N=C(\N)NC(=O)C3CC3)nc2c1 | inconclusive [cytotoxic, partial curve] | 
30 | COc1ccccc1NC(=O)C1=C(C)Nc2nc3ccccc3n2C1c1cccs1 (centres undefined) | active: 5.17 µM | 
31 | CCc1ccc(CCC(=O)Nc2sc3c(c2C#N)CCCC3)o1 | active: 4.47 µM | 
32 | Cc1cc(C)nc(NC(=O)c2ccc(COc3ccccc3Cl)cc2)c1 |  | inconclusive: -14.1% [cytotoxic]
33 | O=C(/C=C/c1ccccc1Cl)c1ccc(O)cc1 | inconclusive [cytotoxic, single point] | 
34 | Cc1ccc(-c2nc(C(=O)NCCCN(C)C)cc3c2[nH]c2ccccc23)cc1 | inconclusive [cytotoxic, single point] | 
35 | CCOC(=O)c1[nH]c2ccc(F)cc2c1NC(=O)CN1CCN(C/C=C/c2ccccc2)CC1 | active: 25.9 µM | 
36 | CCCc1nnc(SCC(=O)Nc2ccc(Cl)cc2Cl)o1 |  | inactive: 8.3%
37 | COc1ccccc1NC(=O)c1c(Nc2ccccc2F)sc(C(=O)Nc2cccc(Cl)c2)c1N | inconclusive [cytotoxic, single point] | 
38 | COc1cccc(CNc2nc3cc(C(C)=C(C)C)sc3c(=O)n2C)c1 |  | inconclusive: -31.2% [cytotoxic]
39 | COc1ccc(CCNC(=O)C2CCCN(C(=O)N(C)C)C2)c(OC)c1 (centres undefined) | inconclusive [rising, partial curve] | 
40 | Cc1cccc(C(=O)OC(C)CN2C(C)CCCC2C)c1 (centres undefined) |  | inactive: 0.231%
41 | COc1ccc2c(c1)C(=O)Nc1cc(Cl)ccc1N2 | inconclusive [rising, full curve, poor fit] | 
42 | Cc1cc(C)cc(OCC(=O)Nc2cnn(CCCC(=O)O)c2)c1 |  | inactive: 14.2%
43 | CCC(=O)N1CCN(c2ccc(NC(=O)c3ccc([N+](=O)[O-])o3)cc2Cl)CC1 | active: 7.31 µM | 
44 | CC(=O)N1N=C(c2ccc(C)cc2)CC1c1ccco1 (centres undefined) |  | inactive: -10.2%
45 | Cc1ccc(S(=O)(=O)NC(=O)c2ccccc2C)cc1 |  | inactive: 21.9%
46 | CCOC(=O)C1CCCN(C(=O)c2cc3ncc(Br)cn3n2)C1 (centres undefined) |  | inactive: 13.3%
47 | N#Cc1nc(Cc2cccc3ccccc23)oc1NCCN1CCOCC1 | inconclusive [cytotoxic, single point] | 
48 | O=C(NC(c1ccccc1)c1ccc2ccccc2n1)C1CCN(Cc2ccc(Oc3ccccc3)cc2)CC1 (centres undefined) | active: 13 µM | 
49 | CN(c1ccccc1)P(=O)(N(C)c1ccccc1)N(C)c1ccccc1 |  | inconclusive: -31.2% [cytotoxic]

Reference: PubChem BioAssay AID686971 (National Center for Advancing Translational Sciences (NCATS), 2013)
